Assay results from patent US8642544B2, “N-terminus conformationally constrained GLP-1 receptor agonist compounds” (Amylin Pharmaceuticals, LLC, priority 2009, dated 2014).
pEC50: −log10 of the molar value. At least one structure is not confirmed: it was looked up by name or label, or the drawing left a doubt.

These molecules were tested against T1, GLP-1 receptor (Rattus norvegicus, UniProt P32301) (assay: in vitro functional assay at the GLP-1 receptor (cyclase, cAMP production in RIN m5f cell membranes)). Conditions: read-out: Cyclase GLP-1 Receptor EC50, Table 1, cAMP production (AlphaScreen).
T1 construct: 96-well assay plate containing RIN m5f cell membranes in an ATP/GTP mixture; endogenous in cells; host or cells: RIN m5f cell membranes
T1 sequence (P32301 22-463): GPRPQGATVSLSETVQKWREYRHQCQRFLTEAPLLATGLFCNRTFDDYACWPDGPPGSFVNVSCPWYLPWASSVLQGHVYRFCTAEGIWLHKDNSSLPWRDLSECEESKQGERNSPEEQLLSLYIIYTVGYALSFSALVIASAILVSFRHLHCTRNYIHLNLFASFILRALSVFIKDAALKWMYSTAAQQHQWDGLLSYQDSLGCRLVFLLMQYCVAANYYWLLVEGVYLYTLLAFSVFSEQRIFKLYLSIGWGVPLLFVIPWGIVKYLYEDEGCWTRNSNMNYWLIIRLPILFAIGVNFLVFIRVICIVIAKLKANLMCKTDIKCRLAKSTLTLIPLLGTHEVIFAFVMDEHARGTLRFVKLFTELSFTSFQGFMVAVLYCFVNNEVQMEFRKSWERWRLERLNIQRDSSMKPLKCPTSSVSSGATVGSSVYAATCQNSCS
Format: biochemical
Protocol: The compounds shown in Table 1 below were analyzed in an in vitro functional assay at the GLP-1 receptor. The assay was conducted as follows: Membrane fractions were prepared from confluent cultures of RIN m5f cells. Compounds were serially diluted with an assay buffer, and then added to a 96-well assay plate containing RIN m5f cell membranes in an ATP/GTP mixture. Cyclase activities were determined by measuring the production of cAMP induced through GLP-1 receptor activation. Quantification of cAMP production was achieved through a competitive chemiluminescence assay with a biotinylated-cAMP probe using Perkin Elmer Fusion™-Alpha Microplate Analyzer (AlphaScreen™ technology). The compound EC50 values were obtained through fitting the concentration-response curves to a four-parameter logistic equation within GraphPad PRISM® software.
`CC[C@H](C)[C@H](NC(=O)[C@H](Cc1ccccc1)NC(=O)[C@H](CC(C)C)NC(=O)[C@H](CCCNC(=N)N)NC(=O)[C@@H](NC(=O)[C@H](C)NC(=O)[C@H](CCC(=O)O)NC(=O)[C@H](CCC(=O)O)NC(=O)[C@H](CCC(=O)O)NC(=O)[C@H](CC(C)C)NC(=O)[C@H](CCC(N)=O)NC(=O)[C@H](CCCCN)NC(=O)[C@H](CO)NC(=O)[C@H](CC(C)C)NC(=O)[C@H](CC(=O)O)NC(=O)[C@H](CO)NC(=O)[C@@H](NC(=O)[C@H](Cc1ccccc1)NC(=O)[C@@H](NC(=O)CNC(=O)[C@@H]1CSC2CC[C@H](NC(=O)[C@@H](N)Cc3c[nH]cn3)C(=O)N21)[C@@H](C)O)[C@@H](C)O)C(C)C)C(=O)N[C@@H](CCC(=O)O)C(=O)N[C@@H](Cc1c[nH]c2ccccc12)C(=O)N[C@@H](CC(C)C)C(=O)N[C@@H](CCCCN)C(=O)N[C@@H](CCC(N)=O)C(=O)NCC(=O)NCC(=O)N1CCC[C@H]1C(=O)N[C@@H](CO)C(=O)N[C@@H](CCCCN)C(=O)N[C@@H](CCC(=O)O)C(=O)N[C@H](C(=O)N[C@H](C(=O)N[C@@H](CO)C(=O)O)[C@@H](C)CC)[C@@H](C)CC` (some centres unmarked) [2K] showed a pEC50 of 9.54. `CC[C@H](C)[C@H](NC(=O)[C@H](Cc1ccccc1)NC(=O)[C@H](CC(C)C)NC(=O)[C@H](CCCNC(=N)N)NC(=O)[C@@H](NC(=O)[C@H](C)NC(=O)[C@H](CCC(=O)O)NC(=O)[C@H](CCC(=O)O)NC(=O)[C@H](CCC(=O)O)NC(=O)[C@H](CC(C)C)NC(=O)[C@H](CCC(N)=O)NC(=O)[C@H](CCCCN)NC(=O)[C@H](CO)NC(=O)[C@H](CC(C)C)NC(=O)[C@H](CC(=O)O)NC(=O)[C@H](CO)NC(=O)[C@@H](NC(=O)[C@H](Cc1ccccc1)NC(=O)[C@@H](NC(=O)CNC(=O)[C@@H]1CSCN1C(=O)CNC(=O)[C@@H](N)Cc1c[nH]cn1)[C@@H](C)O)[C@@H](C)O)C(C)C)C(=O)N[C@@H](CCC(=O)O)C(=O)N[C@@H](Cc1c[nH]c2ccccc12)C(=O)N[C@@H](CC(C)C)C(=O)N[C@@H](CCCCN)C(=O)N[C@@H](CCC(N)=O)C(=O)NCC(=O)NCC(=O)N1CCC[C@H]1C(=O)N[C@@H](CO)C(=O)N[C@@H](CCCCN)C(=O)N[C@@H](CCC(=O)O)C(=O)N[C@H](C(=O)N[C@H](C(=O)N[C@@H](CO)C(N)=O)[C@@H](C)CC)[C@@H](C)CC` [2H] showed a pEC50 of 9.91. With `CC[C@H](C)[C@H](NC(=O)[C@H](Cc1ccccc1)NC(=O)[C@H](CC(C)C)NC(=O)[C@H](CCCNC(=N)N)NC(=O)[C@@H](NC(=O)[C@H](C)NC(=O)[C@H](CCC(=O)O)NC(=O)[C@H](CCC(=O)O)NC(=O)[C@H](CCC(=O)O)NC(=O)[C@H](CC(C)C)NC(=O)[C@H](CCC(N)=O)NC(=O)[C@H](CCCCN)NC(=O)[C@H](CO)NC(=O)[C@H](CC(C)C)NC(=O)[C@H](CC(=O)O)NC(=O)[C@H](CO)NC(=O)[C@@H](NC(=O)[C@H](Cc1ccccc1)NC(=O)[C@@H](NC(=O)CNC(=O)[C@@H]1C[C@@H](O)CN1C(=O)CNC(=O)[C@@H](N)Cc1c[nH]cn1)[C@@H](C)O)[C@@H](C)O)C(C)C)C(=O)N[C@@H](CCC(=O)O)C(=O)N[C@@H](Cc1c[nH]c2ccccc12)C(=O)N[C@@H](CC(C)C)C(=O)N[C@@H](CCCCN)C(=O)N[C@@H](CCC(N)=O)C(=O)NCC(=O)NCC(=O)N1CCC[C@H]1C(=O)N[C@@H](CO)C(=O)N[C@@H](CCCCN)C(=O)N[C@@H](CCC(=O)O)C(=O)N[C@H](C(=O)N[C@H](C(=O)N[C@@H](CO)C(N)=O)[C@@H](C)CC)[C@@H](C)CC` [2I] the pEC50 was 10.27. `CC[C@H](C)[C@H](NC(=O)[C@H](Cc1ccccc1)NC(=O)[C@H](CC(C)C)NC(=O)[C@H](CCCNC(=N)N)NC(=O)[C@@H](NC(=O)[C@H](C)NC(=O)[C@H](CCC(=O)O)NC(=O)[C@H](CCC(=O)O)NC(=O)[C@H](CCC(=O)O)NC(=O)[C@H](CC(C)C)NC(=O)[C@H](CCC(N)=O)NC(=O)[C@H](CCCCN)NC(=O)[C@H](CO)NC(=O)[C@H](CC(C)C)NC(=O)[C@H](CC(=O)O)NC(=O)[C@H](CO)NC(=O)[C@@H](NC(=O)[C@H](Cc1ccccc1)NC(=O)[C@@H](NC(=O)CNC(=O)[C@@H]1CCCN(C(=O)CNC(=O)[C@@H](N)Cc2c[nH]cn2)C1)[C@@H](C)O)[C@@H](C)O)C(C)C)C(=O)N[C@@H](CCC(=O)O)C(=O)N[C@@H](Cc1c[nH]c2ccccc12)C(=O)N[C@@H](CC(C)C)C(=O)N[C@@H](CCCCN)C(=O)N[C@@H](CCC(N)=O)C(=O)NCC(=O)NCC(=O)N1CCC[C@H]1C(=O)N[C@@H](CO)C(=O)N[C@@H](CCCCN)C(=O)N[C@@H](CCC(=O)O)C(=O)N[C@H](C(=O)N[C@H](C(=O)N[C@@H](CO)C(N)=O)[C@@H](C)CC)[C@@H](C)CC` [2G] showed a pEC50 of 9.05. With `CC[C@H](C)[C@H](NC(=O)[C@H](Cc1ccccc1)NC(=O)[C@H](CC(C)C)NC(=O)[C@H](CCCNC(=N)N)NC(=O)[C@@H](NC(=O)[C@H](C)NC(=O)[C@H](CCC(=O)O)NC(=O)[C@H](CCC(=O)O)NC(=O)[C@H](CCC(=O)O)NC(=O)[C@H](CC(C)C)NC(=O)[C@H](CCC(N)=O)NC(=O)[C@H](CCCCN)NC(=O)[C@H](CO)NC(=O)[C@H](CC(C)C)NC(=O)[C@H](CC(=O)O)NC(=O)[C@H](CO)NC(=O)[C@@H](NC(=O)[C@H](Cc1ccccc1)NC(=O)[C@@H](NC(=O)CNC(=O)[C@@H]1CCCCN1C(=O)CNC(=O)[C@@H](N)Cc1c[nH]cn1)[C@@H](C)O)[C@@H](C)O)C(C)C)C(=O)N[C@@H](CCC(=O)O)C(=O)N[C@@H](Cc1c[nH]c2ccccc12)C(=O)N[C@@H](CC(C)C)C(=O)N[C@@H](CCCCN)C(=O)N[C@@H](CCC(N)=O)C(=O)NCC(=O)NCC(=O)N1CCC[C@H]1C(=O)N[C@@H](CO)C(=O)N[C@@H](CCCCN)C(=O)N[C@@H](CCC(=O)O)C(=O)N[C@H](C(=O)N[C@H](C(=O)N[C@@H](CO)C(N)=O)[C@@H](C)CC)[C@@H](C)CC` [2F] the pEC50 was 10.57. `CC[C@H](C)[C@H](NC(=O)[C@H](Cc1ccccc1)NC(=O)[C@H](CC(C)C)NC(=O)[C@H](CCCNC(=N)N)NC(=O)[C@@H](NC(=O)[C@H](C)NC(=O)[C@H](CCC(=O)O)NC(=O)[C@H](CCC(=O)O)NC(=O)[C@H](CCC(=O)O)NC(=O)[C@H](CC(C)C)NC(=O)[C@H](CCC(N)=O)NC(=O)[C@H](CCCCN)NC(=O)[C@H](CO)NC(=O)[C@H](CC(C)C)NC(=O)[C@H](CC(=O)O)NC(=O)[C@H](CO)NC(=O)[C@@H](NC(=O)[C@H](Cc1ccccc1)NC(=O)[C@@H](NC(=O)CNC(=O)[C@H]1CCCN(C(=O)[C@@H]2CCCN(C(=O)[C@@H](N)Cc3c[nH]cn3)C2)C1)[C@@H](C)O)[C@@H](C)O)C(C)C)C(=O)N[C@@H](CCC(=O)O)C(=O)N[C@@H](Cc1c[nH]c2ccccc12)C(=O)N[C@@H](CC(C)C)C(=O)N[C@@H](CCCCN)C(=O)N[C@@H](CCC(N)=O)C(=O)NCC(=O)NCC(=O)N1CCC[C@H]1C(=O)N[C@@H](CO)C(=O)N[C@@H](CCCCN)C(=O)N[C@@H](CCC(=O)O)C(=O)N[C@H](C(=O)N[C@H](C(=O)N[C@@H](CO)C(N)=O)[C@@H](C)CC)[C@@H](C)CC` [15C] showed a pEC50 of 8.61. `CC[C@H](C)[C@H](NC(=O)[C@H](Cc1ccccc1)NC(=O)[C@H](CC(C)C)NC(=O)[C@H](CCCNC(=N)N)NC(=O)[C@@H](NC(=O)[C@H](C)NC(=O)[C@H](CCC(=O)O)NC(=O)[C@H](CCC(=O)O)NC(=O)[C@H](CCC(=O)O)NC(=O)[C@H](CC(C)C)NC(=O)[C@H](CCC(N)=O)NC(=O)[C@H](CCCCN)NC(=O)[C@H](CO)NC(=O)[C@H](CC(C)C)NC(=O)[C@H](CC(=O)O)NC(=O)[C@H](CO)NC(=O)[C@@H](NC(=O)[C@H](Cc1ccccc1)NC(=O)[C@@H](NC(=O)CNC(=O)[C@@H]1CCCN1C(=O)[C@@H]1CCCN1C(=O)[C@@H](N)Cc1c[nH]cn1)[C@@H](C)O)[C@@H](C)O)C(C)C)C(=O)N[C@@H](CCC(=O)O)C(=O)N[C@@H](Cc1c[nH]c2ccccc12)C(=O)N[C@@H](CC(C)C)C(=O)N[C@@H](CCCCN)C(=O)N[C@@H](CCC(N)=O)C(=O)NCC(=O)NCC(=O)N1CCC[C@H]1C(=O)N[C@@H](CO)C(=O)N[C@@H](CCCCN)C(=O)N[C@@H](CCC(=O)O)C(=O)N[C@H](C(=O)N[C@H](C(=O)N[C@@H](CO)C(=O)O)[C@@H](C)CC)[C@@H](C)CC` [14J] was tested, and the pEC50 was 10.27. `CC[C@H](C)[C@H](NC(=O)[C@H](Cc1ccccc1)NC(=O)[C@H](CC(C)C)NC(=O)[C@H](CCCNC(=N)N)NC(=O)[C@@H](NC(=O)[C@H](C)NC(=O)[C@H](CCC(=O)O)NC(=O)[C@H](CCC(=O)O)NC(=O)[C@H](CCC(=O)O)NC(=O)[C@H](CC(C)C)NC(=O)[C@H](CCC(N)=O)NC(=O)[C@H](CCCCN)NC(=O)[C@H](CO)NC(=O)[C@H](CC(C)C)NC(=O)[C@H](CC(=O)O)NC(=O)[C@H](CO)NC(=O)[C@@H](NC(=O)[C@H](Cc1ccccc1)NC(=O)[C@@H](NC(=O)CNC(=O)[C@@H]1CCCN1C(=O)CNC(=O)[C@@H](N)Cc1c[nH]cn1)[C@@H](C)O)[C@@H](C)O)C(C)C)C(=O)N[C@@H](CCC(=O)O)C(=O)N[C@@H](Cc1c[nH]c2ccccc12)C(=O)N[C@@H](CC(C)C)C(=O)N[C@@H](CCCCN)C(=O)N[C@@H](CCC(N)=O)C(=O)NCC(=O)NCC(=O)N1CCC[C@H]1C(=O)N[C@@H](CO)C(=O)N[C@@H](CCCCN)C(=O)N[C@@H](CCC(=O)O)C(=O)N[C@H](C(=O)N[C@H](C(=O)N[C@@H](CO)C(N)=O)[C@@H](C)CC)[C@@H](C)CC` [2B] gave a pEC50 of 11.05.
